Data as given in PubChem BioAssay AID1508642 (National Center for Advancing Translational Sciences (NCATS), 2021).
Among all 43,000 compounds or so, about 200 (0.47%) were called active. Not shown: some 12% with an inconclusive outcome. The call rests on the fitted dose curve; in most records, active means well fitted cell-killing curve with a large enough effect; inconclusive means small, poorly fitted or top-dose-only effect, or effect the other way; inactive means flat fitted curve, though single readings scatter. The list shows a part of the results.

Assay: Cell viability qHTS assay in S16 Pmp22-F2sN cells; further: nearly all actives have a fitted effect of over 65% in size
Settings: S16 Pmp22-F2sN Schwann cells (luciferase reporters placed in the Pmp22 gene) viability, CellTiter-Glo, 24 h; series mostly up to 57.5 µM; activity change, negative = cytotoxicity: at the top concentration
Outline: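 Rat S16 Schwann reporter line, 24 h treatment with library compounds delivered at 23 nL per well. Cell viability by CellTiter-Glo luminescence.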
On the % scale 0 is the no-effect control and ±100 the full control effect.

Row | SMILES | activity change, negative = cytotoxicity
1 | Cc1ccc2c(=O)cc(CSc3nnc(-c4ccccc4)n3C)[nH]c2c1C | inactive: 13%
2 | CC(C)c1ccc(S(=O)(=O)Nc2ccc3oc4c(c3c2)C(=O)CC(C)(C)C4)cc1 | inactive: -1.14%
3 | Cc1cc(C)c(NC(=O)c2cc3c(=O)n4ccccc4nc3n2C)c(C)c1 | inactive: 1.38%
4 | Cc1cc(-c2nc3ncccc3o2)ccc1NC(=O)c1ccc(Br)cc1 | inactive: 4.36%
5 | COc1ccc(OCC(=O)NCC(c2ccc(Cl)cc2)N2CCCCC2)cc1 (configuration not stated) | inactive: 0.974%
6 | CSc1ccc(CNC(=O)c2ccccc2NC(=O)c2nsc3ccccc23)cc1 | inactive: -7.08%
7 | CC(=O)N1c2ccccc2C(=O)C1N1CCN(c2ccccc2)CC1 (configuration not stated) | inactive: -0.681%
8 | COc1ccc(NC(=O)c2c(-c3ccccc3)c(-c3ccccc3)nn(C)c2=O)c(OC)c1 | inactive: 0.998%
9 | Cc1c(Cl)cccc1NC(=O)c1ccc(C(=O)Nc2cccc(Cl)c2C)cc1 | inactive: 10.4%
10 | CC1CCN(C(=O)c2cnn(-c3cccc(Cl)c3)c2C2CCN(C(=O)OC(C)(C)C)CC2)CC1 | inactive: 8.5%
11 | CC(=O)N1CCc2c(sc3c2c(=O)n(-c2ccccc2C)c(=O)n3Cc2cccc(F)c2)C1 | inactive: 29.3%
12 | COc1cc(OC)cc(-n2nnc(-c3nc(-c4ccccc4Cl)no3)c2N)c1 | inactive: -1%
13 | CCN(c1ccccc1)S(=O)(=O)c1ccc(NC(=O)c2cc(=O)c3cc(C)c(C)cc3o2)cc1 | inactive: 4.62%
14 | Cc1cccc(NS(=O)(=O)c2ccc3c(c2)CCN3C(=O)CCC(=O)O)c1C | inactive: -4.2%
15 | Cc1ccc(NC(=O)CSc2nc3c([nH]c4ccccc43)c(=O)n2-c2ccccc2)c(C)c1 | inactive: 14.3%
16 | CCCCN1CCc2nc(N3CCN(c4ncccn4)CC3)ncc2C1 | inactive: -12.6%
17 | CCOc1ccc(C(=O)Nc2ccc3nc(SCc4ccccc4)sc3c2)cc1 | inactive: 9.46%
18 | COc1ccccc1N1CCN(C(=O)Cn2c(=O)nc(-c3ccccc3)c3cc(Cl)ccc32)CC1 | inactive: 28.3%
19 | CCOc1ccc(NC(=O)c2ccc(-c3ccccc3)s2)cc1 | inactive: 14.1%
20 | Cc1nc2c(-c3ccc(F)cc3)c(C)nn2c(C)c1CCC(=O)NCc1ccc(Cl)cc1 | inactive: 11.7%
21 | COc1cccc(-n2cc(C(=O)NCc3cccc(Cl)c3)c3ccccc3c2=O)c1 | inactive: -20%
22 | COc1ccc(S(=O)(=O)Nc2cc3c(cc2NCc2ccccc2)n(C)c(=O)n3C)cc1OC | inactive: -19.9%
23 | CCOc1ccc(N2C(=O)N(Cc3ccc(C)cc3C)c3ccccc3S2(=O)=O)cc1 | inactive: -0.788%
24 | COc1ccccc1N1CCN(CC(O)COc2cc(C)cc(C)c2)CC1 (configuration not stated) | inactive: -29.4%
25 | COc1ccc(-c2ccc3c(N)c(C(=O)Nc4cc(F)ccc4C)sc3n2)cc1 | inactive: -3.4%

Row | SMILES | activity change, negative = cytotoxicity
26 | Cc1cccc(Nc2c3c(nc4nncn24)CCC3)c1 | inactive: -1.32%
27 | CCn1cc(C(=O)N2CCN(c3cc(C)ccc3C)CC2)c(=O)c2cc(S(=O)(=O)N(C)C3CCCCC3)ccc21 | inactive: -4.66%
28 | COc1cccc(CNC(=O)CCCN2C(=O)CSc3c2c(C)nn3-c2ccccc2)c1 | inactive: 3.44%
29 | O=c1c2ccccc2n(Cc2cccc(F)c2)c(=O)n1Cc1ccccc1Cl | inactive: -12.4%
30 | COC(=O)c1ccccc1NC(=O)c1ccc2nc(CCc3ccccc3)oc2c1 | inactive: 6.77%
31 | COc1ccc(Cn2ccnc2SCC(=O)NCc2ccco2)cc1 | inactive: 5.15%
32 | Cc1cccc(N2CCN(S(=O)(=O)c3ccc4c(c3)CC(=O)N4C)CC2)c1C | inactive: -13.1%
33 | CCN(CC)CCNC(=O)Cn1nc(C)c2c(C)n(-c3ccccc3)nc2c1=O | inactive: 11%
34 | Cc1ccc(Cl)cc1NC(=O)CSc1nc2ccccc2nc1Cc1ccccc1 | inactive: -4.09%
35 | COc1cccc(-c2noc(COc3ccccc3Cl)n2)c1 | inactive: 2.45%
36 | Cc1cccc(Cn2cc(S(=O)(=O)c3cccc(C)c3)c(=O)c3cc(F)c(N4CCOCC4)cc32)c1 | inactive: -18.1%
37 | Cc1ccc(CNC(=O)CCCn2c(=O)[nH]c3ccc(Br)cc3c2=O)cc1 | inactive: 8.67%
38 | CCOc1ccc(-n2c(SCC(=O)NC3CCCCC3)nc3c([nH]c4ccccc43)c2=O)cc1 | inactive: 7.39%
39 | Cc1ccc(-n2c(=O)c3c(cnn3C)n(CC(=O)Nc3ccccc3C)c2=O)cc1 | inactive: -5.24%
40 | CCCCn1c(=NC(=O)c2cc3ccccc3o2)c(C(=O)OCC)cc2c(=O)n3ccccc3nc21 | inactive: -3.26%
41 | O=C(Cn1c(=O)oc2cc(S(=O)(=O)N3CCCCC3)ccc21)NCc1ccc(Cl)cc1 | inactive: -12.6%
42 | Cc1cc(C)cc(-n2c(SCC(N)=O)nc3c([nH]c4ccccc43)c2=O)c1 | inactive: 16.2%
43 | O=C(Nc1ccccc1C(F)(F)F)N1CCC(CN2CCc3ccccc3C2)CC1 | inactive: 3.27%
44 | O=C(NC1CC(=O)N(c2cccc(F)c2)C1)c1cc2ccccc2o1 (configuration not stated) | inactive: 12.4%
45 | Cc1ccc(OCc2ccc(-c3nc(C#N)c(NCc4ccccc4Cl)o3)o2)cc1 | inactive: -1.2%
46 | COc1ccc(Nc2ncnc3c2cnn3-c2ccc(C)cc2)cc1Cl | inactive: 8.38%
47 | Cc1ccc2nc(-c3cccc(NC(=O)c4cccc5ccccc45)c3)oc2c1 | inactive: -8.81%
48 | CCC(=O)N1CCc2cc(Br)cc(S(=O)(=O)CCC(=O)NCc3cccc(OC)c3)c21 | inactive: -0.943%
49 | CCOC(=O)c1ccc(CN(Cc2ccccc2C)S(=O)(=O)c2ccc(F)c(C)c2)cc1 | inactive: -16.7%
50 | COCCNc1oc(/C=C/c2ccc(F)cc2)nc1C#N | inactive: 3.74%

Row | SMILES | activity change, negative = cytotoxicity
51 | COc1ccccc1NC(=O)c1oc2ccccc2c1NC(=O)C1CCCCC1 | inactive: 20%
52 | CC1C(=O)N2CCCc3cc(S(=O)(=O)N4CCC(C(N)=O)CC4)cc1c32 (configuration not stated) | inactive: -1.24%
53 | Cc1ccc2cc(CN(C(=O)c3cccc(Cl)c3)c3ccccc3)c(=O)[nH]c2c1 | inactive: 0.636%
54 | CCCSCCCNC(=O)c1ccc2c(c1)sc1nc(-c3ccc(OCC)cc3)cn12 | inactive: 4.03%
55 | Cc1ccccc1CSc1nc2ccsc2c(=O)n1CCC(C)C | inactive: 8.86%
56 | O=C(NCc1ccccc1F)C1CCN(c2nn3cc(-c4ccc(F)cc4)nc3s2)CC1 | inactive: -3.11%
57 | CN1c2ccc(Cl)cc2-c2nc(SCC(=O)NCc3ccccc3)ncc2S1(=O)=O | inactive: 7.98%
58 | COc1cccc(CNC(=O)c2cnc(N3CCCCC3)c3ccccc23)c1 | inactive: 4.73%
59 | CCc1ccc2oc(C(=O)Nc3ccccc3C(=O)OC)cc(=O)c2c1 | inactive: 6.34%
60 | COc1ccc(CNC(=O)Cn2c(=O)cc(-c3ccccc3)c3c(C)nn(C)c32)cc1 | inactive: 3.57%
61 | COc1ccc(S(=O)(=O)N(CC(=O)Nc2cccnc2)c2ccc(Cl)cc2)cc1 | inactive: 19.2%
62 | CCOc1ccccc1CNC(=O)c1cccn1-c1nnc(N2CCCC2)s1 | inactive: 0.767%
63 | Cc1cccc(N2CCN(C(=O)Cn3nc(Cc4cccnc4)c4ccccc4c3=O)CC2)c1C | inactive: -17.1%
64 | COc1ccc(NC(=O)Cn2c(=O)ccc3cc(S(=O)(=O)N4CCCC4)ccc32)cc1Cl | inactive: -1.88%
65 | COc1ccc(CNC(=O)COCc2cc(-c3cccs3)on2)cc1 | inactive: 1.32%
66 | O=C(O)Cn1ccc2cc(S(=O)(=O)N3CCCCCC3)ccc21 | inactive: -2.68%
67 | Cc1ccccc1CSc1cn(CC(=O)N2CCCCCC2)c2ccccc12 | inactive: -11.1%
68 | Cc1cccn2c(=O)c(C(=O)NCCc3ccc(S(N)(=O)=O)cc3)c(O)nc12 | inactive: 4.37%
69 | COc1ccc(NC(=O)c2c(NCc3cccc(OC)c3)sc3c2CCCC3)cc1 | inactive: -21.2%
70 | Cc1ccc2occ(CC(=O)N(Cc3ccc(C(C)C)cc3)C3CCS(=O)(=O)C3)c2c1 (configuration not stated) | inactive: -14.7%
71 | O=C(CCC1N=C2c3ccccc3N=C(SCc3ccccc3F)N2C1=O)NCc1ccc(F)cc1 (configuration not stated) | inactive: -2.04%
72 | CC(C)(C)c1ccc(C(=O)N2CCC(c3nc4ccccc4o3)CC2)cc1 | inactive: -21.4%
73 | Cc1ccc(-n2c(=O)c3c(c4cc(C)ccc4n3C)n(CC(=O)NCc3ccccc3)c2=O)cc1 | inactive: 1.35%
74 | CCN1CCc2nc3sc(C(=O)c4ccc(F)cc4)c(N)c3cc2C1 | inactive: 0.641%
75 | COc1ccccc1NC(=O)CSc1nc(-c2ccccc2F)nc2cc(=O)[nH]n12 | inactive: 4.42%

Row | SMILES | activity change, negative = cytotoxicity
76 | COc1ccc(CCNc2nc3c(-c4cccc(C)c4)nnn3c3ccccc23)cc1OC | inactive: 8.57%
77 | COc1ccc(-c2onc(C)c2C)cc1S(=O)(=O)NCC1CCN(Cc2cccc(F)c2)CC1 | inactive: -24.7%
78 | CC1=C(c2ccc(Cl)cc2)S(=O)(=O)N=C1N1CCC(C(=O)NCc2ccccc2F)CC1 | inactive: -17%
79 | O=C(NCCc1ccccc1)C(=O)NCC(c1ccc2c(c1)OCO2)N1CCOCC1 (configuration not stated) | inactive: -1.26%
80 | CC1CCN(S(=O)(=O)c2nnc(NC(=O)c3cccc(Br)c3)s2)CC1 | inactive: -17.6%
81 | CCS(=O)(=O)N1CCc2cc(C(=O)NCCc3ccc(OC)cc3)ccc21 | inactive: 0.553%
82 | COc1cc(NC(=O)CC(C)n2nc(C)cc2C)cc(OC)c1 (configuration not stated) | inactive: -1.58%
83 | CCNc1nc(NC(C)(C)C)nc(Oc2ccc(=O)n(C)n2)n1 | inactive: 13.6%
84 | Cc1ccc(NC(=O)Cn2c(=O)n(CCC(=O)NCc3ccccc3Cl)c(=O)c3ccccc32)cc1 | inactive: 8.03%
85 | Cc1ccc(-c2nnc3ccccc3c2C(=O)Nc2ccccc2F)cc1 | inactive: -1.65%
86 | CCOc1ccccc1C(=O)N(Cc1ccccc1F)C1CCS(=O)(=O)C1 (configuration not stated) | inactive: 5.17%
87 | COc1cc(NC(=O)C(CCSC)NS(=O)(=O)c2ccc3c(c2)oc(=O)n3C)cc(OC)c1 (configuration not stated) | inactive: -1.6%
88 | COc1ccc(NC(=O)CCc2c(C)nc3nc(CNC(=O)OC(C)(C)C)nn3c2C)cc1OC | inactive: 1.24%
89 | O=C(Nc1ccc(F)c(Cl)c1)C1CCCN(c2cnccn2)C1 (configuration not stated) | inactive: -5.7%
90 | COc1ccc(S(=O)(=O)NCC(c2ccco2)N2CCN(c3ccc(F)cc3)CC2)cc1C (configuration not stated) | inactive: -21.6%
91 | CC1CCN(S(=O)(=O)c2ccc3c(ccn3CCC(=O)NCc3ccc(N(C)C)cc3)c2)CC1 | inactive: -15.5%
92 | COc1cccc2cc(C(=O)NCCc3c(C)[nH]c4ccc(F)cc34)c(=O)oc12 | inactive: 10.2%
93 | CCc1ccccc1NC(=O)N1CCN(C(=O)c2nsc3ccccc23)CC1 | inactive: -0.0583%
94 | CC(=O)N1CCCC1c1nc2ccccc2n1Cc1ccccc1C (configuration not stated) | inactive: 0.15%
95 | Cc1ccc(CN2C(=O)C3(c4ccccc42)N(c2cccc(F)c2)C(=O)CS3(=O)=O)cc1 (configuration not stated) | inactive: -2.18%
96 | CCCCN(CC)CCNC(=O)c1cn(C)c(=O)c2c1c1ccccc1n2C | inactive: 23.2%
97 | Cc1ccccc1CN1CCC(CNc2ncnc3onc(-c4ccc(F)cc4)c23)CC1 | inactive: -22.8%
